Assay results from PubChem BioAssay AID686978 (National Center for Advancing Translational Sciences (NCATS), 2013).
In all, about 420,000 compounds went through this assay and about 64,000 (15%) were called active. The shares of active, inactive and inconclusive entries below differ from those in the screen. Calls follow the shape of the dose curve; as a rule, active = well fitted inhibition curve with a large enough effect; inconclusive = small, poorly fitted or top-dose-only effect; inactive = flat fitted curve, though single readings scatter. No potency is given beside an inconclusive call; the fits are too rough.

Experiment: qHTS for Inhibitors of human tyrosyl-DNA phosphodiesterase 1 (TDP1): qHTS in cells in absence of CPT; also: nearly all actives have a fitted effect of over 55% in size
Details: DT40 Tdp1-/- hTDP1 cells, no CPT, ATP luminescence, 48 h; activity change, negative = growth inhibition: at 46.2 µM (top of the series)
Summary of the method: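 Chicken DT40 Tdp1-/- cells complemented with human TDP1, screened without camptothecin (DMSO vehicle only), 400 cells/well. Compounds pin-transferred, cells incubated at 37 °C for at least 48 hr. Growth read as ATP-dependent luminescence (CellTiter-Glo, 30 min at RT).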
% is scaled to controls: 0 for no effect and ±100 for the full control effect; potency is read from the fitted curve at half-maximal effect; tags tell the direction and shape of the fitted curve.

**Q.** For CC(=O)c1ccc(N(CC(=O)NC2CCCCC2)C(=O)CNC(=O)c2ccco2)cc1, which “activity change, negative = growth inhibition” value is on record?
**A.** inactive: -16.3%

**Q.** For Cn1c(=O)n(C)c2cc(/C=N/NC(=S)NCc3ccccc3)ccc21, which Potency is on record?
**A.** active: 25.9 µM

**Q.** For O=C(Cc1c(Cl)cccc1Cl)OCC(=O)N1CCOCC1, which “activity change, negative = growth inhibition” value is on record?
**A.** inactive: 3.82%

**Q.** With CNC(=S)NCCc1cc2c(OC)ccc(OC)c2[nH]c1=O as the compound, how does the activity change, negative = growth inhibition read?
**A.** inconclusive: -32.3% [inhibitor]

**Q.** For CCOc1ccc2c(c1)C(NC(C)=O)C(=O)N2CCN1CCOCC1 (stereo not drawn), which Potency is on record?
**A.** active: 14.6 µM

**Q.** Which Potency does the source give for Cc1ccccc1NS(=O)(=O)c1cc(C(=O)NCCC2=CCCCC2)ccc1C here?
**A.** inconclusive [inhibitor, single point]

**Q.** Which Potency does the source give for COc1cccc(-c2nc(-c3ccc(NC(=O)c4cccs4)cc3)no2)c1 here?
**A.** inconclusive [inhibitor, partial curve]

**Q.** Which Potency does the source give for S=C(Nc1ccc(Oc2ccccc2)cc1)NC1CCCCC1 here?
**A.** inconclusive [inhibitor, single point]

**Q.** With COC1CCN(C(=O)c2cc(COc3cc(C)ccc3C)on2)CC1 as the compound, how does the Potency read?
**A.** inconclusive [inhibitor, single point]

**Q.** Which Potency does the source give for CCCCNC(=O)CSc1c2c(nc3ccc(Cl)cc13)CCCC2 here?
**A.** inconclusive [inhibitor, single point]

**Q.** With O=S(=O)(Nc1cccc(C(F)(F)F)c1)c1cnc[nH]1 as the compound, how does the “activity change, negative = growth inhibition” value read?
**A.** inactive: -20.4%

**Q.** For CN(CC(=O)Nc1ccc(N2CCOCC2)cc1)CC(=O)Nc1ccccc1[N+](=O)[O-], which “activity change, negative = growth inhibition” value is on record?
**A.** inactive: -5.19%

**Q.** For Cc1ccc(OCCn2cc(C(=O)O)c3ccccc32)cc1, which “activity change, negative = growth inhibition” value is on record?
**A.** inactive: -3.97%

**Q.** Which “activity change, negative = growth inhibition” value does the source give for CNC(=O)c1c(NC(=O)c2cc(=O)c3ccccc3o2)sc2c1CCC2 here?
**A.** inactive: -0.205%

**Q.** With N#Cc1ccccc1NC(=O)COC(=O)CN1C(=O)C2CCCCC2C1=O (stereo not drawn) as the compound, how does the Potency read?
**A.** inconclusive [inhibitor, full curve, poor fit]

**Q.** Which Potency does the source give for CCOC(=O)c1nnn(-c2nonc2N)c1-c1cccc2ccccc12 here?
**A.** inconclusive [inhibitor, single point]

**Q.** With COc1cccc2oc3cc(C#CC4(O)CCCCC4)ccc3c(=O)c12 as the compound, how does the Potency read?
**A.** inconclusive [inhibitor, single point]

**Q.** For COc1cc(/C=N/Nc2nncc3ccccc23)cc(OC)c1OC, which Potency is on record?
**A.** active: 11.6 µM

**Q.** For Cc1nc2c(cc1C(=O)N/N=C/c1ccc([N+](=O)[O-])cc1)c(=O)n(C)c(=O)n2C, which “activity change, negative = growth inhibition” value is on record?
**A.** inactive: -23.5%

**Q.** Which Potency does the source give for Cc1nc(NC(=O)c2ccccc2)sc1C here?
**A.** inconclusive [inhibitor, single point]

**Q.** Which Potency does the source give for CC(C)n1cc(/C=C2/SC(=O)N(CC(=O)N3CCCC3)C2=O)c2ccccc21 here?
**A.** inconclusive [inhibitor, partial curve]

**Q.** For O=[N+]([O-])c1cc(CN2CCOCC2)c2cccnc2c1O, which Potency is on record?
**A.** inconclusive [inhibitor, single point]

**Q.** With O=C(c1cccc(Cl)c1Cl)N(Cc1ccco1)Cc1cccs1 as the compound, how does the Potency read?
**A.** active: 11.2 µM

**Q.** With CCCCN(C(=O)NC(=O)Nc1ccccc1C)S(C)(=O)=O as the compound, how does the “activity change, negative = growth inhibition” value read?
**A.** inactive: -13%

**Q.** With COc1cccc(-c2nc(S(=O)(=O)c3ccccc3)c(NCc3ccccc3)o2)c1 as the compound, how does the Potency read?
**A.** inconclusive [inhibitor, partial curve]

**Q.** Which Potency does the source give for Cc1nccn1CC(=O)N/N=C/c1c[nH]c2ccccc12 here?
**A.** inconclusive [inhibitor, single point]

**Q.** For CCN(CC(=O)NCc1cccs1)C(=O)C(c1ccccc1)c1ccccc1, which “activity change, negative = growth inhibition” value is on record?
**A.** inactive: -24.9%

**Q.** With Cn1c(=O)c2sccc2n2c(CCCC(=O)Nc3ccc(F)c(F)c3)nnc12 as the compound, how does the Potency read?
**A.** inconclusive [inhibitor, single point]

**Q.** With Clc1ccc(-c2nnc3n2CCCC3)cc1Cl as the compound, how does the activity change, negative = growth inhibition read?
**A.** inconclusive: -31.6% [inhibitor]

**Q.** Which activity change, negative = growth inhibition does the source give for Cc1c(C(=O)N(C)CCn2ccnc2C)oc2c(F)cccc12 here?
**A.** inconclusive: -22.4% [inhibitor]

**Q.** For O=C(OCc1cn([C@@H]2C[C@H](c3ccc(Cl)cc3)N(C(=O)c3cccs3)C[C@H]2O)nn1)c1ccccc1, which Potency is on record?
**A.** inconclusive [inhibitor, single point]

**Q.** For COc1cccc(-c2cc(C(F)(F)F)nc(NCc3ccc(F)cc3)n2)c1, which Potency is on record?
**A.** inconclusive [inhibitor, partial curve]

**Q.** For CC1=C(C(=O)Nc2ccccc2)C(c2ccncc2)n2nc(SCc3ccccc3)nc2N1 (stereo not drawn), which “activity change, negative = growth inhibition” value is on record?
**A.** inactive: -12.7%

**Q.** For CC(C)c1ccc(NC(=O)CCS(=O)(=O)c2ccc(Br)s2)cc1, which Potency is on record?
**A.** active: 16.4 µM

**Q.** For CCOC(=O)c1c(C)n(C)c2cc(Br)c(OC)cc12, which “activity change, negative = growth inhibition” value is on record?
**A.** inactive: -3.08%

**Q.** For O=c1c2ccccc2nc(CSc2ncnc3nc[nH]c23)n1-c1cccc(C(F)(F)F)c1, which Potency is on record?
**A.** inconclusive [inhibitor, single point]

**Q.** With CCN(CC)S(=O)(=O)c1cc(C(=O)OCC(=O)Nc2ccc(-c3nc4ccc(C)cc4s3)cc2)ccc1F as the compound, how does the Potency read?
**A.** inconclusive [inhibitor, single point]

**Q.** Which Potency does the source give for COc1ccc(N(CC(=O)Nc2ccc3c(c2)OCCO3)S(=O)(=O)c2c(C)noc2C)cc1 here?
**A.** inconclusive [inhibitor, partial curve]

**Q.** Which Potency does the source give for O=C(NCCSCc1ccco1)Nc1cc(Cl)cc(Cl)c1 here?
**A.** inconclusive [inhibitor, single point]

**Q.** For CN(C)c1ccc(C(=S)N2CCCCCC2)cc1, which Potency is on record?
**A.** active: 16.4 µM

**Q.** Which Potency does the source give for CC1(C)C2CC=C(/C=N/NC(=O)c3ccccc3Br)C1C2 (stereo not drawn) here?
**A.** inconclusive [inhibitor, single point]

**Q.** With Cc1cccc(C)c1NC(=O)Cn1c(CN2CCCCC2)nc2ccccc2c1=O as the compound, how does the Potency read?
**A.** inconclusive [inhibitor, single point]

**Q.** Which Potency does the source give for CCOC(=O)N1CCN(C(=O)c2cc(-c3ccncc3)nc3ccccc23)CC1 here?
**A.** active: 5.8 µM

**Q.** For Cc1cccnc1Nc1nc(-c2ccccc2)cs1, which “activity change, negative = growth inhibition” value is on record?
**A.** inactive: -0.496%

**Q.** For Cc1ccc(/C=c2/sc3nnc(-c4ccccc4Cl)n3c2=O)o1, which Potency is on record?
**A.** active: 11.6 µM

**Q.** For O=C(Nc1nc2c(s1)CCc1ccccc1-2)c1cccs1, which Potency is on record?
**A.** inconclusive [inhibitor, single point]

**Q.** With CSc1ccc(CN2C(=O)C(C)ON=C2c2ccccc2F)cc1 (stereo not drawn) as the compound, how does the Potency read?
**A.** inconclusive [inhibitor, single point]

**Q.** With CCC(C)c1ccc(S(=O)(=O)N2CC(=O)Nc3ccccc32)cc1 (stereo not drawn) as the compound, how does the Potency read?
**A.** inconclusive [inhibitor, partial curve, poor fit]

**Q.** Which Potency does the source give for CCOC(=O)C1(Cc2cccc(Cl)c2)CCCN(C(=O)c2cc(C(C)C)nn2C)C1 (stereo not drawn) here?
**A.** inconclusive [inhibitor, single point]

**Q.** With CCOC(=O)c1ccc(NC(=S)N(Cc2cccnc2)Cc2ccco2)cc1 as the compound, how does the Potency read?
**A.** inconclusive [inhibitor, single point]

**Q.** For CCCCn1c(N)c(N(CC(C)C)C(=O)C2CC(=O)N(Cc3ccco3)C2)c(=O)[nH]c1=O (stereo not drawn), which “activity change, negative = growth inhibition” value is on record?
**A.** inactive: 5.76%

**Q.** Which Potency does the source give for C[C@H]1CN([C@@H](C)CO)S(=O)(=O)c2ccc(Br)cc2O[C@H]1CN(C)S(=O)(=O)c1ccccc1 here?
**A.** active: 16.4 µM

**Q.** For O=c1cc(N2CCN(c3ccc(F)cc3)CC2)[nH]c(=O)n1Cc1ccc(F)cc1, which Potency is on record?
**A.** active: 8.2 µM

**Q.** Which activity change, negative = growth inhibition does the source give for CCOc1ccc(S(=O)(=O)n2cnc3ccccc32)cc1 here?
**A.** inconclusive: -33.9% [inhibitor]

**Q.** For O=C(Cc1ccc(Cl)c(Cl)c1)Nc1cccc2ncccc12, which Potency is on record?
**A.** inconclusive [inhibitor, partial curve, poor fit]

**Q.** For Cc1ccc(C2=NN3C(=O)c4ccccc4C3C2)cc1 (stereo not drawn), which Potency is on record?
**A.** inconclusive [inhibitor, partial curve, poor fit]

**Q.** Which Potency does the source give for N#Cc1ccc(S(=O)(=O)N2CCCN(c3ccc(C(F)(F)F)cn3)CC2)cc1 here?
**A.** inconclusive [inhibitor, single point]

**Q.** With CCOC(=O)c1c(NC(=O)CC2SC(N)=NC2=O)sc2c1CCC(C)C2 (stereo not drawn) as the compound, how does the “activity change, negative = growth inhibition” value read?
**A.** inactive: -20.4%

**Q.** For O=C(NCc1nnnn1-c1ccc(F)c(F)c1)c1ccc2ccccc2c1, which Potency is on record?
**A.** inconclusive [inhibitor, partial curve, poor fit]

**Q.** With COc1ccc(N2CCN(CCCn3cnc4c(SC)ncnc43)CC2)cc1 as the compound, how does the Potency read?
**A.** inconclusive [inhibitor, single point]

**Q.** Which activity change, negative = growth inhibition does the source give for Cc1ccc(C(=O)COC(=O)C(Cc2c[nH]c3ccccc23)NC(=O)c2ccc(Br)cc2)cc1 (stereo not drawn) here?
**A.** inconclusive: -32.8% [inhibitor]

**Q.** For Clc1cccc(Cc2c(-c3cccc(Br)c3)nc3c4ccccc4ccn23)c1, which “activity change, negative = growth inhibition” value is on record?
**A.** inactive: -20.9%

**Q.** Which Potency does the source give for COc1ccc(-c2ccc3nccn3c2)cc1 here?
**A.** inconclusive [inhibitor, single point]

**Q.** With COc1ccc(NC(=O)c2c(C)oc3c2CCCC3)cc1 as the compound, how does the Potency read?
**A.** inconclusive [inhibitor, partial curve]

**Q.** With CCN(CC)CCCOc1cc2nc(N3CCCN(C)CC3)nc(NC3CCN(C)CC3)c2cc1OC as the compound, how does the Potency read?
**A.** inconclusive [inhibitor, single point]

**Q.** With COc1ccc(-c2nc3scc(-c4ccccc4)n3n2)cc1 as the compound, how does the Potency read?
**A.** inconclusive [inhibitor, single point]

**Q.** With CCOC(=O)C1(C)CCCN(C(=O)c2ccc(OC)cc2OC)C1 (stereo not drawn) as the compound, how does the “activity change, negative = growth inhibition” value read?
**A.** inactive: 3.57%

**Q.** Which Potency does the source give for COC(=O)C1=C(C)N(c2cccc(Cl)c2)C(=O)C1 here?
**A.** inconclusive [inhibitor, single point]

**Q.** With COC(=O)c1c(NC(NC(=O)C(C)C)C(Cl)(Cl)Cl)sc2c1CCC2 (stereo not drawn) as the compound, how does the Potency read?
**A.** active: 13 µM

**Q.** For O=C(CSc1nc2ccccc2n1Cc1cccc(Cl)c1)N1CCN(c2ccc(F)cc2)CC1, which Potency is on record?
**A.** inconclusive [inhibitor, partial curve]

**Q.** With Cc1ccc(N)cc1-n1c(C)ccc1C as the compound, how does the “activity change, negative = growth inhibition” value read?
**A.** inactive: -17.2%

**Q.** Which “activity change, negative = growth inhibition” value does the source give for N/C(=N\OC(=O)c1ccco1)c1ccc(Cl)cc1 here?
**A.** inactive: -12.9%

**Q.** With CN(CC(=O)Nc1cccc(C#N)c1)S(=O)(=O)c1cc2c(cc1Cl)NC(=O)CO2 as the compound, how does the Potency read?
**A.** inconclusive [inhibitor, single point]
